Laboratory results: the BET-seq Pho4 binding data (Le et al. 2018)
This is one part of the list. These are noisy estimates, calculated here from bound and input reads.

Target: T1, Pho4 (S. cerevisiae) (UniProt P07270)
T1 sequence: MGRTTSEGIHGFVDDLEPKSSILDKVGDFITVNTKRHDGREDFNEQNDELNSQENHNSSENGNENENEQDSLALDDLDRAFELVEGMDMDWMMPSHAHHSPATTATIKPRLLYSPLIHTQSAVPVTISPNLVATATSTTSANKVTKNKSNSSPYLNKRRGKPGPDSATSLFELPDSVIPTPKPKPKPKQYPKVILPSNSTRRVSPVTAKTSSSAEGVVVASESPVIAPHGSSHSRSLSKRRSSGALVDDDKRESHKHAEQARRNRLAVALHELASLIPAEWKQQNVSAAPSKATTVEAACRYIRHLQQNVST
Assay: relative binding free energy (BET-seq); higher = weaker binding
Settings: reference: library average

Sequence	relative binding free energy
GTTGTCACGTGCGAAG	0.11 kcal/mol
AGGGGCACGTGGTTGC	-0.18 kcal/mol
TAGTGCACGTGGAAGA	0.07 kcal/mol
ACATTCACGTGAGTAG	0.46 kcal/mol
TGTCACACGTGGGATG	0.06 kcal/mol
TGATTCACGTGGGCGT	0.11 kcal/mol
AATTTCACGTGCAGTG	0.12 kcal/mol
AGATTCACGTGGGTCA	0.21 kcal/mol
GGAGACACGTGTATGT	-0.01 kcal/mol
TTTGGCACGTGCGCGG	-0.32 kcal/mol
AATTTCACGTGGTGAT	0.24 kcal/mol
AGTTTCACGTGGCGTC	0.21 kcal/mol
TGGGACACGTGGCATT	0.08 kcal/mol
TGACGCACGTGGGAGG	-0.26 kcal/mol
AATTACACGTGAAGTG	0.18 kcal/mol
CATGTCACGTGAGGAT	0.2 kcal/mol
CCAGGCACGTGGTTGG	-0.21 kcal/mol
TATGTCACGTGTGTCC	0.3 kcal/mol
TGAGGCACGTGAATGT	0.1 kcal/mol
GGCAGCACGTGAGGCG	0.11 kcal/mol
GGTGGCACGTGCGCGT	-0.25 kcal/mol
CTTAGCACGTGGTGAG	0.1 kcal/mol
CTATTCACGTGGGGTT	0.02 kcal/mol

Sequence	relative binding free energy
TGTTTCACGTGGTGAG	0.25 kcal/mol
TTTGACACGTGGGGGG	-0.07 kcal/mol
CGCGGCACGTGGGTAA	-0.07 kcal/mol
CTGGGCACGTGATGGG	-0.08 kcal/mol
TTGATCACGTGTTGCA	0.13 kcal/mol
AATTTCACGTGCCGGT	0.35 kcal/mol
TGGTGCACGTGTCCGG	-0.05 kcal/mol
TTTTACACGTGTTCTA	0.14 kcal/mol
TGGAGCACGTGTTCTG	-0.07 kcal/mol
AGGTCCACGTGGAGGG	-0.04 kcal/mol
TTCGTCACGTGTGAGA	0.05 kcal/mol
TCCATCACGTGGTGGT	0.14 kcal/mol
TGTGGCACGTGCCAGG	-0.22 kcal/mol
CTTATCACGTGCTGGT	0.13 kcal/mol
TGTGGCACGTGGATGG	-0.01 kcal/mol
TATTCCACGTGAGTTA	0.26 kcal/mol
CTAGGCACGTGTTGAG	-0.11 kcal/mol
ATGCCCACGTGGGGGT	-0.34 kcal/mol
TTGCTCACGTGCATTA	0.35 kcal/mol
AAGGCCACGTGGTTTA	-0.02 kcal/mol
GCGGGCACGTGTATGT	0 kcal/mol
TATTTCACGTGGTGGT	0.21 kcal/mol
GGAGACACGTGGGAAG	-0.02 kcal/mol

Sequence	relative binding free energy
TGATTCACGTGGATAT	0.33 kcal/mol
TAGGGCACGTGAAAAG	0.02 kcal/mol
TGCAACACGTGTTAGG	0.04 kcal/mol
GTGGTCACGTGGTGAA	0.08 kcal/mol
ATCTGCACGTGAGTGA	0.19 kcal/mol
TGTGGCACGTGTGCGG	-0.09 kcal/mol
GTCTGCACGTGTTCGG	-0.08 kcal/mol
GGTGGCACGTGTGAAC	-0.02 kcal/mol
AGTATCACGTGGGAAG	0.09 kcal/mol
TTGGTCACGTGGTAGA	0.15 kcal/mol
TTTGACACGTGAGCTG	0.16 kcal/mol
TTGAGCACGTGTTGTC	-0.03 kcal/mol
TGGCTCACGTGAATTT	0.29 kcal/mol
GTCTACACGTGGTTAG	0.09 kcal/mol
TGTTACACGTGCTGTC	0.25 kcal/mol
TTAAGCACGTGAGTTC	0.24 kcal/mol
GCAGGCACGTGAGGTT	0.02 kcal/mol
TTGTGCACGTGTGTGA	0.02 kcal/mol
AGGGGCACGTGGTTGT	-0.14 kcal/mol
ACAGGCACGTGGCGTT	-0.13 kcal/mol
GTCTTCACGTGGAGGT	0.25 kcal/mol
GTGACCACGTGAAGTG	0.29 kcal/mol
GATTGCACGTGGCGGC	0.04 kcal/mol

Sequence	relative binding free energy
ATGTCCACGTGTGTTG	0.03 kcal/mol
TAAATCACGTGGGGAT	0 kcal/mol
TCTTGCACGTGTTTAT	0.22 kcal/mol
CAGTTCACGTGTGGGC	0.23 kcal/mol
GGAGTCACGTGCGTGC	0 kcal/mol
AGGGACACGTGCGCGT	-0.14 kcal/mol
TATTGCACGTGTTTGT	0.09 kcal/mol
AAGTGCACGTGAATTT	0.2 kcal/mol
ATCAGCACGTGTGGGA	-0.15 kcal/mol
AAGAGCACGTGAGATG	0.15 kcal/mol
AATTTCACGTGATACT	0.32 kcal/mol
GTGAGCACGTGTGTTA	-0.04 kcal/mol
TTTGGCACGTGACGTA	-0.04 kcal/mol
AAGCGCACGTGGATTG	-0.06 kcal/mol
GAAGGCACGTGGGTCA	-0.14 kcal/mol
TTTTGCACGTGTAGTA	0.13 kcal/mol
ATTTACACGTGTGGGC	0.17 kcal/mol
GGGGTCACGTGTTTTA	0.23 kcal/mol
ACAGCCACGTGGGGGG	-0.28 kcal/mol
GTATGCACGTGAGGGG	0.2 kcal/mol
ATGTGCACGTGCCGTT	-0.18 kcal/mol
TGGAGCACGTGGAGGG	-0.12 kcal/mol
CAATGCACGTGATGTG	0.06 kcal/mol

Sequence	relative binding free energy
ATCGTCACGTGAATTG	0.28 kcal/mol
TGGAGCACGTGGATTG	0.01 kcal/mol
GGGTCCACGTGGTGTG	-0.11 kcal/mol
GGTCGCACGTGCATGG	-0.07 kcal/mol
GGGCACACGTGTCAGG	0.12 kcal/mol
TAGTCCACGTGATGGT	0.19 kcal/mol
TTTCGCACGTGGTTGA	-0.06 kcal/mol
TACGGCACGTGGGCTG	-0.19 kcal/mol
TGGTACACGTGATTGG	0.26 kcal/mol
TGTTACACGTGATGAG	0.1 kcal/mol
CGAATCACGTGGGGTT	0.12 kcal/mol
GAGAACACGTGTGTGG	0.09 kcal/mol
TACGTCACGTGTGCAG	0.17 kcal/mol
GCTGTCACGTGTTTAG	0.17 kcal/mol
GGAGGCACGTGTAATG	-0.01 kcal/mol
TGGTTCACGTGCGTCA	0.32 kcal/mol
TGCGACACGTGGGGAG	-0.03 kcal/mol
AATTGCACGTGTGTTG	0.1 kcal/mol
CGGAACACGTGGTAGT	0.08 kcal/mol
AGTATCACGTGTGCTA	0.11 kcal/mol
TGGTTCACGTGCTACG	0.28 kcal/mol
TTCTGCACGTGTGGAG	0.04 kcal/mol
TAAGGCACGTGGCAGT	-0.31 kcal/mol
